Source: PubChem BioAssay AID504333 (National Center for Advancing Translational Sciences (NCATS), 2011)
Out of some 360,000 compounds screened, about 16,000 (4.4%) were called active. This list was built around the results that the source calls inconclusive (neither active nor inactive); the mix of calls is not that of the screen. The call rests on the fitted dose curve; in most records, active means well fitted inhibition curve with a large enough effect; inconclusive means small, poorly fitted or top-dose-only effect; inactive means no such curve, though single readings can be large or run the other way. Potencies beside an inconclusive call are fits to weak or partial responses and may not hold up.
Further: nearly all actives have a fitted effect of over 60% in size.
On the % scale 0 is the no-effect control and ±100 the full control effect; potency means the concentration at half of the fitted maximal effect; tags describe the fitted curve by direction and shape.

Each molecule was assayed against Bromodomain adjacent to zinc finger domain protein 2B (Homo sapiens) (UniProt Q9UIF8) (assay: qHTS Assay for Inhibitors of BAZ2B). Conditions: AlphaScreen BAZ2B-H3K14Ac peptide displacement; activity change, negative = inhibition: at 114 µM (top of the series) unless noted.
UniProt Q9UIF8, sequence (Q9UIF8 whole entry, looked up, the tested form may be a part): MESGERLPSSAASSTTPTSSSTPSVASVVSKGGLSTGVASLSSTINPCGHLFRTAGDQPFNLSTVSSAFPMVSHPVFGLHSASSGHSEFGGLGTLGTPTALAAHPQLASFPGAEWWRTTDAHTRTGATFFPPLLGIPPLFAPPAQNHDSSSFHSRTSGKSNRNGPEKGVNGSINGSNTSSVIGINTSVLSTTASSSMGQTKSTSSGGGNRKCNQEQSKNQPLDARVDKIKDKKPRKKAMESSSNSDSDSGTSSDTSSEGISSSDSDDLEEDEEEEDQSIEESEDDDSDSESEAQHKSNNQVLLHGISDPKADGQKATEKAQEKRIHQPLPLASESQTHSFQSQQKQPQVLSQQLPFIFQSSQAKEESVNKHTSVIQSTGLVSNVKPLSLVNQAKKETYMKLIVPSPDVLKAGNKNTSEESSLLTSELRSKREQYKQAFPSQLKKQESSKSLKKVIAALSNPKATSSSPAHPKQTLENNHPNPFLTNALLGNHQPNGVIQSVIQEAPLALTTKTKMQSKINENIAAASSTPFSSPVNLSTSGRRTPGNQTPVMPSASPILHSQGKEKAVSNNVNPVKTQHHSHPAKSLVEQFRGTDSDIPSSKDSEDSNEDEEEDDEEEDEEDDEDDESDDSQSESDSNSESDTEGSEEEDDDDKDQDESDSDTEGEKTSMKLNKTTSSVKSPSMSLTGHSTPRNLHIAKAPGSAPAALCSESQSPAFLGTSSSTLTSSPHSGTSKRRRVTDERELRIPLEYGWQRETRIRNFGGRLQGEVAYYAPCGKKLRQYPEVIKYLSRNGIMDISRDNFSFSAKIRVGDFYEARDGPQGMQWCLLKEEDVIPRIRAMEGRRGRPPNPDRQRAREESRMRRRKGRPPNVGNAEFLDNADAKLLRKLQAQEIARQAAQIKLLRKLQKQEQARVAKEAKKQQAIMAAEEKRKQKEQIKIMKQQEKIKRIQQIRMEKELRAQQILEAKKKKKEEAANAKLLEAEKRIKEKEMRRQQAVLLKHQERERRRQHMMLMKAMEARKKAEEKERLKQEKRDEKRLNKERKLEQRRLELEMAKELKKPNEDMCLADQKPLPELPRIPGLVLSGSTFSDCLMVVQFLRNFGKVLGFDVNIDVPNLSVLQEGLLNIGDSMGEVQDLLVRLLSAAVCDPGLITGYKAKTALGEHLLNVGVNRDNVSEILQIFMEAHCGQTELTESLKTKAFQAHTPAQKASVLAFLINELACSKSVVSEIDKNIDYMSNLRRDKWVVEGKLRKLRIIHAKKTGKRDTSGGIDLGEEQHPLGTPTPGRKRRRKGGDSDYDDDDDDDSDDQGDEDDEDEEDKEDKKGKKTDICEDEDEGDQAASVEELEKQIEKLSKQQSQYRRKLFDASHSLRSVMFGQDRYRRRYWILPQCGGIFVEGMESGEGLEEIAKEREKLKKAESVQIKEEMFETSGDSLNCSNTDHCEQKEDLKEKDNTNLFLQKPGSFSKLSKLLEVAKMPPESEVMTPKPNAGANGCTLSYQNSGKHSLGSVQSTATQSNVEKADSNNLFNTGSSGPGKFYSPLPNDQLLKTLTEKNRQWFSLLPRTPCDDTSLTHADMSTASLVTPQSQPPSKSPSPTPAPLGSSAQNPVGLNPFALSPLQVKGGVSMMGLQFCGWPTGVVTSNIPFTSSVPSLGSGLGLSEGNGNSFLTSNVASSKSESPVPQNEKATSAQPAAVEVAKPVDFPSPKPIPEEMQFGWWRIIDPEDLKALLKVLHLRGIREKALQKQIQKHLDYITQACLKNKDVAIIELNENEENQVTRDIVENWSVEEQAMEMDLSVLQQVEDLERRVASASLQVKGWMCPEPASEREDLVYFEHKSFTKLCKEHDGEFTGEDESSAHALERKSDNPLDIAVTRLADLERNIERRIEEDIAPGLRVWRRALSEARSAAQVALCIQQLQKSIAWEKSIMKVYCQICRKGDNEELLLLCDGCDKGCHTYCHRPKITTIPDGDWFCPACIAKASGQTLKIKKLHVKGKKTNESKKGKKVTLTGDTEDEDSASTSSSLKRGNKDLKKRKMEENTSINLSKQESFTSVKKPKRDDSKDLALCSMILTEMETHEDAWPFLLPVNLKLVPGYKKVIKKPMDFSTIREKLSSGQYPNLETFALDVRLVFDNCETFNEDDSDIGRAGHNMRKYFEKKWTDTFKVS
Outline: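 Complex of BAZ2B and biotin-H3K14Ac (50 nM apiece) forms over 30 min at RT, then faces library compounds up to 110 uM for another 30 min; AlphaScreen beads added, 20 min dark incubation, luminescence read.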
With CC1CN(C(=S)NC(=O)c2ccco2)CC(C)O1 (centres undefined) the “activity change, negative = inhibition” value was inactive: 5.21%. Cc1ccc(C(=O)N/C(=C\c2cn(C)c3ccccc23)C(=O)NCCCn2ccnc2)cc1 was tested, and the Potency was inconclusive: 31.6 µM [inhibitor, full curve]. For C=CCOc1cccc(CNc2cccc(C(=O)O)c2)c1, the Potency was inconclusive: 89.1 µM [inhibitor, single point]. O=S(=O)(Nc1cccc2cccnc12)c1ccc(S(=O)(=O)N2CCCC2)cc1 was tested, and the Potency was inconclusive: 89.1 µM [inhibitor, single point]. COc1ccc([C@H]2CC(=O)C=C(c3cc4ccccc4s3)C2)cc1OC was tested, and the Potency was inconclusive: 44.7 µM [inhibitor, partial curve]. CN(C)c1ccnc(Nc2ccccc2)c1C#N was tested, and the “activity change, negative = inhibition” value was inactive: -3.75%. In the case of O=c1c(CN2CCN(Cc3ccccc3F)C(CCO)C2)coc2ccccc12 (centres undefined), the “activity change, negative = inhibition” value is reported as inactive: 1.69%. In the case of Cc1cc(C)cc(-n2c(C)nc3cc(C(=O)NCc4ccccc4Cl)ccc32)c1, the “activity change, negative = inhibition” value is reported as inactive: -17%. In the case of CC1=C(C(=O)Nc2ccccc2Cl)C(c2ccc(N(C)C)cc2)NC(=O)N1 (centres undefined), the Potency is reported as inconclusive: 89.1 µM [inhibitor, single point]. With [O-]/C(=C(\C(=S)Nc1cccc2ccccc12)[n+]1ccccc1)c1cccs1 the Potency was inconclusive: 35.5 µM [inhibitor, partial curve]. CCCCN(CCCC)CC(O)COc1ccc(Br)cc1 (centres undefined) was tested, and the Potency was active: 31.6 µM. In the case of CCn1c(N2CCN(S(=O)(=O)c3ccc(Cl)cc3)CC2)nc2ccccc21, the Potency is reported as inconclusive: 70.8 µM [inhibitor, single point]. For NC(=O)CCCn1c(C(=O)c2cc(Cl)c(N)c(Cl)c2)c2ccc([N+](=O)[O-])cc2[n+]1[O-], the Potency was inconclusive: 89.1 µM [inhibitor, single point]. In the case of CCOC(=O)C1CCN(C(=O)CSCc2nc(-c3ccc(OCC)cc3)oc2C)CC1, the “activity change, negative = inhibition” value is reported as inactive: -7.84%. c1ccc(CNCc2ccc3c(c2)OCO3)nc1 was tested, and the Potency was inconclusive: 89.1 µM [inhibitor, single point]. With CCCCc1ccc(/C=C(\C#N)C(N)=S)s1 the Potency was active: 44.7 µM. For CCC1=Nc2cc(C(=O)NCc3ccco3)ccc2Sc2ccc(Cl)cc21, the Potency was inconclusive: 70.8 µM [inhibitor, single point]. COc1ccc(CC(=O)Nc2nc(-c3ccc(OC)c(OC)c3)cs2)cc1OC was tested, and the Potency was inconclusive: 56.2 µM [inhibitor, partial curve]. For COc1ccc(OC)c(NC(=O)CN(C)S(=O)(=O)c2ccc3nc(C)sc3c2)c1, the Potency was inconclusive: 89.1 µM [inhibitor, single point]. In the case of CCOC(=O)c1ccc(NC(=O)c2cn(-c3ccccc3)nc2-c2ccc(OC)c(OC)c2)cc1, the “activity change, negative = inhibition” value is reported as inactive: 15%. COc1ccc(Cl)cc1NC(=O)CN(C)C(=O)c1ccc(N2CCCCCC2)c([N+](=O)[O-])c1 was tested, and the Potency was inconclusive: 17.8 µM [inhibitor, full curve]. For O=C(Oc1ccc([N+](=O)[O-])cc1)c1ccc2ccccc2n1, the Potency was inconclusive: 89.1 µM [inhibitor, single point]. For O=C(CSc1ccc(-c2ccccn2)nn1)c1ccc([N+](=O)[O-])cc1, the Potency was active: 8.91 µM. In the case of O=C(/C=C/c1c(Cl)nc2ccccn12)N1CCN(c2ccc(F)cc2)CC1, the Potency is reported as inconclusive: 89.1 µM [inhibitor, single point]. With CC(=O)Nc1ccc(S(=O)(=O)Oc2ccc(C(=S)N3CCCCC3)cc2)cc1 the Potency was inconclusive: 70.8 µM [inhibitor, single point]. CN(C)c1ccc(/C=C/C(=O)c2ccc(C(C)(C)C)cc2)cc1[N+](=O)[O-] was tested, and the Potency was active: 8.91 µM. O=C(CN1C(=O)NC2(CCCC2)C1=O)Nc1ccccc1F was tested, and the “activity change, negative = inhibition” value was inactive: 1.07%. In the case of CCOC(=O)C1=C(N)N(c2ccc(N3CCCCC3)cc2)C(=O)C1, the Potency is reported as inconclusive: 79.4 µM [inhibitor, single point]. In the case of COCC(=O)OCC(=O)N1N=C(c2ccc(Cl)cc2)CC1c1ccco1 (centres undefined), the Potency is reported as inconclusive: 79.4 µM [inhibitor, single point]. For COc1ccc(-c2cc(OC(=O)c3cccc(Cl)c3)c3c(C)oc(C)c3c(=O)c2)cc1, the Potency was active: 50.1 µM. With CCOc1cc(N2CCOCC2)c(OCC)cc1NC(=O)Cc1ccccc1 the Potency was inconclusive: 79.4 µM [inhibitor, single point]. FC(F)Oc1ccc(NC(=S)NC23CC4CC(CC(C4)C2)C3)cc1 was tested, and the Potency was inconclusive: 70.8 µM [inhibitor, single point]. CCCc1nnc(NC(=O)CN2C(=O)c3ccccc3S2(=O)=O)s1 was tested, and the Potency was inconclusive: 89.1 µM [inhibitor, single point]. CC(C)(C)c1ccc(C(=O)Nc2sc3c(c2C(=O)O)CCC3)cc1 was tested, and the Potency was inconclusive: 89.1 µM [inhibitor, single point]. COc1ccc(CC(=O)N2CCN=C2SCc2cccc([N+](=O)[O-])c2)cc1 was tested, and the Potency was inconclusive: 28.2 µM [inhibitor, full curve]. For Cc1nc2scc(-c3ccco3)c2c(=O)n1/N=C/N(C)C, the “activity change, negative = inhibition” value was inactive: -0.739%. For COc1ccc(NC(=S)NNS(=O)(=O)c2ccc3ccccc3c2)c(OC)c1, the Potency was inconclusive: 70.8 µM [inhibitor, single point]. With Cc1ccc(C(=O)NC(=S)Nc2ccc3c(c2)OCCO3)c(C)c1 the Potency was inconclusive: 35.5 µM [inhibitor, partial curve]. For O=C(CCCN1C(=O)/C(=C/c2cccs2)SC1=S)Nc1ccc(O)c(C(=O)O)c1, the Potency was inconclusive: 31.6 µM [inhibitor, partial curve]. With CCC(C)NC(=O)CNC(=O)c1nn(-c2ccc(OC)cc2)c(=O)c2ccccc12 (centres undefined) the Potency was inconclusive: 89.1 µM [inhibitor, single point]. With Cc1cccc(CNC(=O)c2ccc(C)c(-n3c(C)nc4cccnc43)c2)c1 the “activity change, negative = inhibition” value was inactive: -5.3%. In the case of CCn1ccc2cc(S(=O)(=O)N3CCC(C(=O)NCCc4ccccc4)CC3)ccc21, the “activity change, negative = inhibition” value is reported as inactive: -3.91%. CCC(=O)c1c(CC)c2n3c1CC[C@H]3CCC2 was tested, and the Potency was inconclusive: 89.1 µM [inhibitor, single point]. For COc1ccc(N2CCN(C(c3cccs3)c3nnnn3C3CCCC3)CC2)cc1 (centres undefined), the Potency was inconclusive: 39.8 µM [inhibitor, full curve]. In the case of O=c1c(S(=O)(=O)c2cccc(Cl)c2)cn(Cc2ccccc2)c2cc(N3CCCCC3)c(F)cc12, the “activity change, negative = inhibition” value is reported as inactive: -1.22%. With CCCC[C@@H]1CNC(=S)N1CCc1cccc2ccccc12 the Potency was inconclusive: 70.8 µM [inhibitor, single point]. With CCOC(=O)C1CCN(C(=O)c2ccc(OCC(=O)Nc3ccc(OCC)cc3)c(OC)c2)CC1 the “activity change, negative = inhibition” value was inactive: 8.61%. Cc1cc(C)c(NC(=O)CCCn2c(C)c3cnn(-c4ccccc4)c(=O)c3c2C)c(C)c1 was tested, and the Potency was inconclusive: 70.8 µM [inhibitor, partial curve]. With Cc1cccc(-c2nc(CN3CCCC(C(=O)NC4CCCCCC4)C3)c(C)o2)c1 (centres undefined) the Potency was inconclusive: 50.1 µM [inhibitor, partial curve]. C/C(=N\NS(=O)(=O)c1ccc(C)c([N+](=O)[O-])c1)c1cc2ccccc2o1 was tested, and the Potency was inconclusive: 89.1 µM [inhibitor, single point]. With C/C(=N\NC(=O)c1cccc(S(=O)(=O)N2CCOCC2)c1)c1ccc(C#N)cc1 the Potency was inconclusive: 50.1 µM [inhibitor, partial curve]. In the case of Cc1oc2cc3oc(=O)c(CCC(=O)NCCCn4ccnc4)c(C)c3cc2c1C, the Potency is reported as inconclusive: 44.7 µM [inhibitor, partial curve]. For Cc1ccc(C(=O)OCC(=O)NNC(=O)c2ccc([N+](=O)[O-])cc2)o1, the Potency was inconclusive: 89.1 µM [inhibitor, single point]. With COc1cc(OC)cc(C(=O)Nc2nnc3n2CCS3)c1 the Potency was inconclusive: 89.1 µM [inhibitor, single point]. Cc1ccc2nc(C)cc(N/N=C/c3ccccc3O)c2c1 was tested, and the “activity change, negative = inhibition” value was inactive: -33.6%. Cc1cccc(N2C(=O)/C(=C\c3ccc(C(=O)O)cc3)c3ccccc3C2=O)c1 was tested, and the Potency was inconclusive: 89.1 µM [inhibitor, single point]. For CCOC(=O)c1c(CSc2ccccc2)n(C)c2cc(Br)c(OCC(O)CNC(CO)(CO)CO)cc12 (centres undefined), the Potency was inconclusive: 31.6 µM [inhibitor, partial curve]. For C=C(C)CSc1nnc(CCNC(=O)OC(C)(C)C)o1, the “activity change, negative = inhibition” value was inactive: 9.93%. In the case of CCc1ccccc1NC(=S)NCc1cccn1C, the Potency is reported as inconclusive: 79.4 µM [inhibitor, single point]. COC(=O)c1ccc(CC(=O)c2ccc(O)cc2O)o1 was tested, and the Potency was active: 63.1 µM. In the case of Cc1cc(C(=O)COC(=O)c2n[nH]c3ccccc23)c(C)n1C, the Potency is reported as inconclusive: 50.1 µM [inhibitor, partial curve]. For COc1ccccc1N1CCN(C2CCN(C(=O)c3cccc(F)c3)CC2)CC1, the Potency was active: 50.1 µM. CCCCOc1cccc(NC(=O)c2cccc(C(=O)Nc3cccc(OCCCC)c3)c2)c1 was tested, and the “activity change, negative = inhibition” value was inactive: -9.33%. Nc1ccc(Nc2ccc([N+](=O)[O-])cc2[N+](=O)[O-])cc1 was tested, and the Potency was active: 28.2 µM. Cc1ccc(/C=N/NC(=O)c2ccc(OC3CCCC3)cc2)o1 was tested, and the “activity change, negative = inhibition” value was inactive: -22.7%. With N#C/C=C(/N)c1ccc(Br)cc1 the “activity change, negative = inhibition” value was inactive: -11.8%. In the case of O=C(Nc1ccc(Oc2cccnc2)cc1)C1CCN(Cc2cc(Cl)ccc2O)CC1, the Potency is reported as inconclusive: 79.4 µM [inhibitor, single point]. c1ccc(-c2cn(-c3ccccc3)c3ncnc(NCCCN4CCOCC4)c23)cc1 was tested, and the Potency was inconclusive: 44.7 µM [inhibitor, partial curve]. Cc1ccc(C(=O)Nc2nnc(S(=O)(=O)N3CCN(c4ccc(F)cc4)CC3)s2)cc1 was tested, and the Potency was inconclusive: 7.94 µM [inhibitor, full curve].
